Source: article PMC12136788
The list shows a part of the results.

T1: UNK ZnF1-3 (human, UniProt Q9C0B0 31-174)
T1 sequence: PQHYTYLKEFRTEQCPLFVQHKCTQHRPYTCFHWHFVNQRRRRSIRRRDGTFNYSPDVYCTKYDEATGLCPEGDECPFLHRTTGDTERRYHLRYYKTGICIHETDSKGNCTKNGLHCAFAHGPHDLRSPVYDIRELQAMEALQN

B1: chr16:23109248:23109249:+_ENSMUSG00000022884_ENSMUST00000115341|mus_hu|FALSE|FALSE (ssRNA)
RNA: GGGAGUUCUACAGUCCGACGAUCAAGUGCCAGAAUUACCUUUUGGAUCUGUUGAGCCAGUUCUCUGGUGGGGGCCAAUACUAGUGCUUGGGUCUCCUUGAACUCAAUCUCCAACUGUUGCAGGAUGGAAAUAGCAAAUGUGGCCAACAGAGGAUUGAGCAUCA
B2: chr4:17845017:17845018:+_ENSG00000109805_ENST00000514176|hu_mus|hu_hu_hu_mus_False|78_108 (ssRNA)
RNA: GGGAGUUCUACAGUCCGACGAUCGCUUCCUAACUUAGUAUCUUCAUUAAGGAACUCGCAAGGUUAAAGUUUACUUUUCUGUAGCGCAGCUGUUUUGGCUCGUCUGGGUAAUCUCAUCUUCAUUUCUGAUGGUGGUUCAUGAUCCAACAGAGGAUUGAGCAUCA
B3: chr7:40134317:40134318:+_ENSG00000065883_ENST00000340829|hu_hu|motif|central (ssRNA)
RNA: GGGAGUUCUACAGUCCGACGAUCGGAAGGGUCACUGCUGUUUGCCAGGACUGCAAUAGGACCAUGGCUAUAUUCAAAUCGGUGGUCCUUGUCUCCACUAAACAACAUGGGACCAGCAUUGAGGUAAAUGUCUCCAUAUCCAGCCAACAGAGGAUUGAGCAUCA
B4: chr5:128440902:128440903:+_ENSG00000066583_ENST00000173527|hu_mus|hu_hu_hu_mus_True|18_48 (ssRNA)
RNA: GGGAGUUCUACAGUCCGACGAUCUUGAACGGUGCUGCCAAGUCCUUUGGGGUAUUGUUCCGUUAUGAUAACUGGAAUCCCUAAGAUCCGGGCCCCUUGCAACAGUCUCUGUCCCACGCUAAUAAUAUCCCCAAAGUAUUUGAUCAACAGAGGAUUGAGCAUCA
B5: chr16:94664741:94664742:+_ENSMUSG00000040785_ENSMUST00000117648|mus_hu|mus_mus_mus_hu_False|28_58 (ssRNA)
RNA: GGGAGUUCUACAGUCCGACGAUCUGGUACUGAUCUUGGUAGCUGAUAUUCAGGAGAAAGGCUGGCCAAGGGUGUAUAAAUGCUAGUGUACUGGGGCAAACCUGGUACCAUGUUAAUGUAUGCUGGCGGUGUCUGGGUGAUAUCCAACAGAGGAUUGAGCAUCA
B6: chrX:71549762:71549763:+_ENSMUSG00000019087_ENSMUST00000019231|mus_mus|mus_mus_mus_hu_False|28_28 (ssRNA)
RNA: GGGAGUUCUACAGUCCGACGAUCAAACCCGUGUACUUCUUAUUGUUAGCACAACAUCACCAGAAAACGAUAACGACAGCCAAGCAGGACAGACAGUUAAGUAGUACUUCCACACCUCCAAACUCAGGGAGCCCUAUAACCUUACAACAGAGGAUUGAGCAUCA
B7: 30804562_30806349_983_CDS_ENSG00000108671_ENST00000457654|human|control|control (ssRNA)
RNA: GGGAGUUCUACAGUCCGACGAUCUAGUAAGUUAUCAUACAACUUGGCCAAGUGUGUGCUGAUGAUUGGGUCAUCCCGGAGCUCUGCCCGGUAAUCUGUCAGAGCCUUUUCAAAAUCUGCCAGUGAUCUGUUCUUGCUAGCCUGCAACAGAGGAUUGAGCAUCA
B8: 35104582_35104702_250_CDS_ENSMUSG00000029104_ENSMUST00000080036|mouse|control|control (ssRNA)
RNA: GGGAGUUCUACAGUCCGACGAUCCUGCCCCUGAGGCGGCGGCUGAGGGGGUUGAGGCGGAGGCGGCGGCGGCGGUGGCGGCGGCGCCUGCGGCGGUGGCUGCUGCUGCUGUUGCUGCUGAAACGACUUGAGCGACUCGAAAGCCAACAGAGGAUUGAGCAUCA
B9: chr14:89307221:89307222:+_ENSG00000165533_ENST00000346301|hu_mus|hu_hu_hu_mus_False|68_78 (ssRNA)
RNA: GGGAGUUCUACAGUCCGACGAUCUCCUGUUUGGUUAGUGCCAGGGAGCUUCAAAGACGUUCCAGGGCGUGGAACUUGAGCAAUAGCAUUUUCAUCCAGGAUCAUUUCAGCAAUUCCUUCCUGGUCCACAUCAAUUUCAUCUAUCAACAGAGGAUUGAGCAUCA
B10: chr17:24776569:24776570:-_ENSMUSG00000002504_ENSMUST00000002572|mus_mus|motif|central (ssRNA)
RNA: GGGAGUUCUACAGUCCGACGAUCAGAGAGCCUAGGCUCUGCAUUCCAGAACCCAGCAUGUGGGAGGUAGCACAGGGGUAGCGGGGCAGAGAAGAGAGGCCUGGCCUAGGGACCAUCCCAUGUGAGGGAUGGGGCAGAGGGACACAACAGAGGAUUGAGCAUCA
B11: chr2:48034705:48034706:-_ENSG00000138081_ENST00000403359|hu_mus|FALSE|FALSE (ssRNA)
RNA: GGGAGUUCUACAGUCCGACGAUCCAUAGAAAGAAGGUACAUACUGGGACAUGAGUACAGUUACAGCAAGUCUAGGUGUGCUAACAAAACAGGGCACAUUCAAGUACAAUAAGAUUUGCUUGAAAUUAAAAACGAACUACAUGACAACAGAGGAUUGAGCAUCA
B12: 65860078_65860198_1207_3pUTR_ENSMUSG00000044647_ENSMUST00000122912|mouse|control|control (ssRNA)
RNA: GGGAGUUCUACAGUCCGACGAUCGUGGCAGCCAUUCAGCGUGGGGGUUUGUUGCUCUCGGUUCUUCUCCAGUUCAAGUUUCAUUAUUGUGUGCAAAAAAUGAGUCCGGACACGGAUAGGAUUGAAUUCAAUUCUACCUGCUGUCAACAGAGGAUUGAGCAUCA
B13: chr5:24319680:24319681:-_ENSMUSG00000028945_ENSMUST00000030787|perfect_dup|motif|central (ssRNA)
RNA: GGGAGUUCUACAGUCCGACGAUCAAGCUGAAGAUGAUACUCUUGACCAUUUACCGUGAUCAACUUGGUGAACGUGUUCUCGGUGGUUGGAUCGUAGGAAUCAACAAAUUGGCCUUCAACAAACUGAAUUGUCAAUGAGGACUUCAACAGAGGAUUGAGCAUCA
B14: chr6:13037117:13037118:+_ENSMUSG00000029571_ENSMUST00000031556|mus_mus|FALSE|FALSE (ssRNA)
RNA: GGGAGUUCUACAGUCCGACGAUCGCGUGUACUGUACUGUUUGUGAAUGGGCAUCGACACAUUUGUAUGUGUGUGUACACUAUAUAUGUGGUAUUGUACUGUCCGUGAACGGUCAUCCGAGAAGAGUGCCAGUUCUCUCCGCCUCAACAGAGGAUUGAGCAUCA

The binders below were run against T1, UNK ZnF1-3 (assay: nsRBNS (natural sequence RNA bind-n-seq); RBNS binding buffer (assumed for nsRBNS): 25 mM Tris pH 7.5, 150 mM KCl, 3 mM MgCl2, 0.01% Triton X-100, 500 ug/ml BSA, 20 U/ml SUPERase-In, 4 C; UNK is unkempt and MSI1 is Musashi-1; names of the RNAs are library labels; protein concentration not given here; high values mean tight binding).

| Binder | binding signal [enrichment R] |
| --- | --- |
| B1 | 1.13 |
| B2 | 0.585 |
| B3 | 1.39 |
| B4 | 0.768 |
| B5 | 1.02 |
| B6 | 1.58 |
| B7 | 0.718 |
| B8 | 1.01 |
| B9 | 0.862 |
| B10 | 1.07 |
| B11 | 1.25 |
| B12 | 0.818 |
| B13 | 0.867 |
| B14 | 0.651 |
